Test results: PubChem BioAssay AID1963576 (National Center for Advancing Translational Sciences (NCATS), 2024)
The whole screen tested about 46,000 compounds, of which about 60 (0.1%) were called active. About 3% were inconclusive and are not listed. The call rests on the fitted dose curve; in most records, active means well fitted inhibition curve with a large enough effect; inconclusive means small, poorly fitted or top-dose-only effect; inactive means no such curve, though single readings can be large or run the other way. This is one part of the list.

Assay: Primary qHTS assay for Inhibitors of ovarian cancer metastasis using an organotypic tumor microenvironment (TME) model. Further: nearly all actives have a fitted effect of over 65% in size.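 On activity change, negative = inhibition: plate controls were DMSO wells for no effect and tomatine positive control wells for full effect.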
Details: SKOV3ip1-GFP adhesion/invasion on 3D omental model, fluorescence; series mostly up to 45.8 µM; activity change, negative = inhibition: at the top concentration
Method in brief: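 Adhesion/invasion was scored as fixed GFP-labeled SKOV3ip1 cell counts (488/509 nm), normalized to DMSO and tomatine controls. Cancer cells in serum-free medium, with four compound doses (0.36-46 umol/L), sat 2 hr at RT then 16 hr at 37 C on a 48 hr fibroblast/mesothelial/ECM culture.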

Activity change, negative = inhibition, inactive:
CCOc1ccc(CCNC(=O)c2ccc3c(c2)sc2nc(-c4ccc(F)cc4)cn23)cc1OCC -0.293%, Cc1cc(C)cc(N2C(=O)CCSC23C(=O)N(Cc2ccccc2)c2ccccc23)c1 (stereo not given) 28.8%, COc1ccc(-c2nc(-c3ccccc3)c(-c3ccc(F)cc3)[nH]2)c(OC)c1C -11.6%, CC(C)(C)NC(=O)c1ccc2nc(CCc3ccccc3)oc2c1 2.75%, CCOC(=O)c1[nH]c(C)c(CCC(=O)Nc2ccc(Br)c(C)c2)c1C 2.54%, COc1cc(C(=O)Nc2nonc2-c2ccc(Cl)cc2)cc(OC)c1OC 3.11%, Cc1nc2sccn2c(=O)c1S(=O)(=O)Nc1ccc(N2CCN(C(=O)C(C)C)CC2)cc1 1.98%, CCOC(=O)c1ccn(-c2nc(-c3cccc(OC)c3)cc(C(F)(F)F)n2)n1 -10.4%, Cc1ccc(N2CC(NC(=O)C3CC3)CC2=O)cc1C (stereo not given) -3.27%, CC(C)c1ccc(NC(=O)CCn2c(=O)c3cccn3c3ccccc32)cc1 3.31%, COc1cccc(NC(=O)N(Cc2c[nH]c3ccccc23)C2CCCCC2)c1 0.613%, Cc1ccc(C(CC(=O)Nc2ccc(F)c(Cl)c2)N2Cc3ccccc3C2=O)cc1 (stereo not given) 11.7%, Cc1cccc(CNC(=O)C2CCN(S(=O)(=O)c3ccc4c(c3)CCCN4C(=O)C3CCC3)CC2)c1 0.94%, CCCc1cnc2c(c1SCC(=O)Nc1ccccc1F)c(=O)n(C)c(=O)n2C -16.5%, CCOc1ccc(C(c2c(O)cc(C)n(Cc3ccco3)c2=O)N2CCN(c3ccccc3)CC2)cc1 (stereo not given) 8.31%, COc1ccc(NC(=O)CSC2=Nc3ccccc3C3=NC(CC(=O)NCc4ccc5c(c4)OCO5)C(=O)N23)cc1 (stereo not given) 2.63%, Cc1cccc(N2CCN(S(=O)(=O)c3c(C(=O)N4CCC(C)CC4)c(C)n(C)c3C)CC2)c1C -5.32%, COC(=O)c1ccc(NC(=O)CC2C(=O)N(c3ccccc3)C(=O)N2Cc2ccco2)cc1 (stereo not given) 2.32%, Cc1ccc(NC(=O)Cn2cnc3sc(C)c(S(=O)(=O)N4CCN(c5ncccn5)CC4)c3c2=O)cc1F 7.77%, Cn1nnnc1SCCCNCc1cc(Cl)ccc1OCc1ccccc1F -1.56%, CCc1nn(Cc2c(C)cc(C)cc2C)c(=O)c2cc3cc(C)ccc3n12 9.84%, O=C(Nc1ccc(F)cc1F)N1CCN(c2ccc(Cl)c(Cl)c2)CC1 -28.9%, CCCC12CN3CC(CCC)(CN(C1)C3c1c(C)[nH]c(=O)[nH]c1=O)C2=O (stereo not given) 0.406%, Cc1ccc(C2C=C(c3ccc(Cl)cc3)Nc3nc(NC(=O)c4ccco4)nn32)cc1 (stereo not given) 0.627%, Cn1nc(-c2ccc(N3CCCCC3)c(NC(=O)c3ccc(Cl)cc3)c2)c2ccccc2c1=O 0.338%, COc1ccc(C)cc1NC(=O)CN1C(=O)COc2ccc(S(=O)(=O)NC3CCCC3)cc21 -2.73%, CCOc1ccccc1NC(=O)c1nn(C)c2c1CSc1ccccc1-2 -2.02%, Cc1ccc(-n2ncc(C(=O)NCCN3CCc4ccccc4C3)c2C2CCNCC2)cc1C -0.119%, COc1ccc(NC(=O)c2cc(=O)c3ccc(C)c(C)c3o2)cc1Cl 5.5%, CC(=O)c1cccc(Nc2ccc3cc(S(=O)(=O)N4CCCC4)ccc3n2)c1 -2.3%, CCCn1c(=NC(=O)c2c(-c3c(F)cccc3Cl)noc2C)c(C(=O)OCC)cc2c(=O)n3ccccc3nc21 -1.88%, CCCc1cc(=O)[nH]c(SCc2nc(-c3ccccc3F)no2)n1 12.3%, CCOC(=O)c1cc(S(=O)(=O)Nc2ccccc2OCC)[nH]n1 4.59%, Cc1ccccc1CSc1nc2c([nH]c3ccccc32)c(=O)n1C -0.716%, CCOc1ccc(NC(=O)C(C)Sc2nc3ncccc3o2)cc1 (stereo not given) 7.19%, Cc1cccc(CNC(=O)c2ccc(NC(=O)N3CCSc4ncccc43)cc2)c1 22.2%, CC1CCN(S(=O)(=O)c2ccc3c(c2)N(CC(=O)NCCCN2CCCC(C)C2)C(=O)CS3)CC1 (stereo not given) -10.9%, COc1ccc(-n2nc(C(=O)Nc3cccc(C)n3)c3c4ccccc4n(C)c3c2=O)cc1 -3.79%, Cc1ccc2c(c1)-c1ncc(C(=O)c3cc(Br)ccc3O)cc1CO2 40.9%, CC(=O)c1ccc(N2CCN(c3ncnc4c3cnn4C)CC2)cc1 11.1%, Cc1cccc(CNC(=O)Cn2ccc3cc(S(=O)(=O)N4CCC(C)CC4)ccc32)c1 -5.96%, CCOC(=O)C1CCN(C(=O)Cn2ncc3c([nH]c4ccccc43)c2=O)CC1 3.23%, COc1ccc(-c2ccc(CCC(=O)O)n2-c2cc(Cl)ccc2O)cc1 -21.8%, O=C(Cn1c(=O)n(Cc2nc(-c3ccccc3)no2)c(=O)c2cc3c(cc21)OCO3)Nc1cccc(C(F)(F)F)c1 -1.24%, CCC(C)N(C)C(=O)c1cc2ccccc2c(-c2ccccc2Cl)n1 (stereo not given) -18.1%, CCN1C(=O)c2ccccc2Sc2ccc(NC(=O)c3ccc(C)c(F)c3)cc21 -1.79%, COc1cccc(NC(CNS(=O)(=O)c2ccc(C)cc2)c2ccccc2)c1 (stereo not given) 3.18%, O=C(Cn1nnc2sc3c(c2c1=O)CCCC3)Nc1ccc(F)c(Cl)c1 -19.4%, CN(Cc1ccccc1)c1ncnc2c1nc1n2CCCC1 -17.3%

outcome, inactive:
COc1cccc(CNCCSc2nnnn2C)c1OCc1ccc(F)cc1, CCCCCc1nn2cc(-c3ccccc3)nc2s1, COc1cc(Nc2ncc3c(n2)CCN(Cc2cc(F)cc(F)c2)C3)cc(OC)c1, CN(C)CCNC(=O)c1ccc(Cn2c(=O)c3cccn3c3cccnc32)cc1, CCOc1ccc(-c2csc(-c3c(N)c(C(=O)c4ccc5c(c4)OCO5)n4ccccc34)n2)cc1, COc1ccc(-n2c(=O)c3c4c(sc3n3c(SC(C)C)nnc23)COC(C(C)C)C4)cc1 (stereo not given), Cc1cc(C)cc(NC(=O)Cn2c(=O)n(Cc3ccc4c(c3)OCO4)c(=O)c3oc4ccccc4c32)c1, COc1cccc(C2CC(=O)Nc3c2c(=O)n(C)c2nc4ccccc4n32)c1 (stereo not given), CCOC(=O)c1c(C)[nH]c(C)c1S(=O)(=O)N(C)CC(=O)Nc1cccc(C(F)(F)F)c1, COc1ccccc1-c1cc(C(F)(F)F)nc(S(=O)(=O)CCCC(=O)Nc2ccc(F)cc2F)n1, Cc1cccc(C(=O)Nc2nc(-c3nnn(-c4cc(C)ccc4C)c3C)ns2)c1
